Measured values reported in publication PMC11251039, “Harnessing cholesterol uptake of malaria parasites for therapeutic applications” (EMBO Molecular Medicine, 2024).
Where “and” joins values, the source holds several entries; their conditions need not be identical. Equal entries are not always repeated. The source gives many values for each of these; only a part stands here.

Columns and labels:
[1] = tested on: P. falciparum stage III–IV gametocytes; experiment: P. falciparum gametocyte viability assay (MitoTracker, flow cytometry), stage III-IV; type: cell-based, Plasmodium falciparum; conditions: 12.500000000 uM, 48 h, replicate values, source data Fig. 2C; listed as BC5B, 12.5 µM
Method: (§1) Gametocyte assays commenced seven days (stage III–IV) or ten days (stage V) post-invasion. […]
(§2) Plasmodium falciparum Gametocyte Viability Assays:
(§3) Asexual P. falciparum parasites were induced to form gametocytes as described (21).
(§4) Synchronized trophozoite-stage parasites at 2% parasitaemia were incubated overnight and […]
haematocrit maintained at 4%. On the subsequent day (designated as day 0) of gametocytogenesis, the culture containing early ring-stage parasites was first purified by sorbitol synchronisation to remove asynchronous trophozoites, and passed through a magnetic field in a sterile MACS® column in a SuperMACSTM II magnet to remove remaining late-stage parasites or later-stage gametocytes (negative selection). The culture medium was supplemented with 50 mM N-acetyl-D-glucosamine to inhibit asexual parasite proliferation, and changed daily. Sorbitol treatment was performed on Day 1, 5, and 6 to further remove asexual parasites. […] These gametocytes were incubated overnight at 37 °C under microaerophilic conditions, and purity was assessed by examination under a light microscope (400× […]
Gametocyte viability was assessed as described by Ridgway et al. (21) with modifications. […]
control to determine background gametocyte fluorescence. […]
(§5) percentage of each was calculated. […]

[2] = tested on: P. falciparum stage V gametocytes; experiment: P. falciparum gametocyte viability assay (MitoTracker, flow cytometry), stage V; type: cell-based, Plasmodium falciparum; conditions: 48 h, replicate values, source data Fig. 2D, listed as BC5B
Method: as §1, §2, §3, §4
haematocrit maintained at 4%. On the subsequent day (designated as day 0) of gametocytogenesis, the culture containing early ring-stage parasites was first purified by sorbitol synchronisation to remove asynchronous trophozoites, and passed through a magnetic field in a sterile MACS® column in a SuperMACSTM II magnet to remove remaining late-stage parasites or later-stage gametocytes (negative selection). The culture medium was supplemented with 50 mM N-acetyl-D-glucosamine to inhibit asexual parasite proliferation, and changed daily. Sorbitol treatment was performed on Day 1, 5, and 6 to further remove asexual parasites. Gametocytes were magnetically enriched (positive selection) in a sterile column with a SuperMACSTM II magnet and eluted in culture media with 50 mM N-acetyl-D-glucosamine. These gametocytes were incubated overnight at 37 °C under microaerophilic conditions, and purity was assessed by examination under a light microscope (400× […]
Gametocyte viability was assessed as described by Ridgway et al. (21) with modifications.
Compounds or solvent controls (DMSO) were serially diluted across 96-well plates in culture media supplemented with 50 mM N-acetyl-D-glucosamine. Culture media without compound was used as a negative control. […]
control to determine background gametocyte fluorescence. Stage III-IV gametocytes (Day 7) or stage V (day 10) gametocytes were concentrated and added to the plate with 200 µL per well. The plate was incubated for 48 hours at 37 °C under humid microaerophilic conditions.
Parasites were then stained with 500 nM MitoTrackerTM Deep Red FM and 5 μg/ml Hoechst […]
cytometer as described above. […]
excluded. Live (positive) and dead (negative) gametocytes were differentiated by […]
as §5

[3] = tested on: P. berghei liver stages; experiment: Plasmodium berghei liver stage growth inhibition assay (luminescence, in Huh7 cells); conditions: listed as BC5B

COc1cc(NC(C)CCCNC(=O)CCC(=O)O[C@H]2CC[C@H]3[C@@H]4CC=C5C[C@@H](O)CC[C@]5(C)[C@H]4CC[C@]23C)c2ncccc2c1 (stereo partly drawn) [C-17-PQ]
Gametocyte stage III-IV viability, percentage of control [1]: 40.42% and 42.4% | Gametocyte stage V viability, percentage of control ([2]; 0.390625000 uM, 0.390625 µM): 98.27% and 93.99% and 80.3% and 101.9% and 99.43% and 75.59% and 105.6% and 96.63% and 91.76% | Gametocyte stage V viability, percentage of control ([2]; 0.781250000 uM, 0.78125 µM): 91.23% and 94.41% and 81.44% and 109.3% and 90.89% and 82.01% and 94.72% and 89.86% and 84.65% | Gametocyte stage V viability, percentage of control ([2]; 1.562500000 uM, 1.5625 µM): 83.44% and 83.53% and 77.68% and 109.8% and 96.7% and 93.65% and 98.11% and 79.64% and 74.46% | Gametocyte stage V viability, percentage of control ([2]; 3.125000000 uM, 3.125 µM): 70.55% and 69.66% and 83.13% and 72.76% and 63.94% and 76.79% and 69.03% and 63.78% | Gametocyte stage V viability, percentage of control ([2]; 6.250000000 uM, 6.25 µM): 59.48% and 61.66% and 60.13% and 51.35% and 42.29% and 31.97% and 59.44% and 48.67% and 56.99% | Gametocyte stage V viability, percentage of control ([2]; 12.500000000 uM, 12.5 µM): 43.62% and 44.16% and 37.04% and 31.28% and 21.36% and 19.08% and 52.74% and 38.49% and 35.02% | Gametocyte stage V viability, percentage of control ([2]; 25.000000000 uM): 25.68% and 21.08% and 15.55% and 13.61% and 9.438% and 7.979% and 4.671% and 11.58% and 10.42% | Gametocyte stage V viability, percentage of control ([2]; 50.000000000 uM): 6.341% and 4.951% and 3.159% and 2.23% and 1.652% and 0.8009% and 0.8089% and 3.502% and 2.333% | Gametocyte stage V viability, percentage of control ([2]; 100.000000000 uM): 0.1792% and 0.9186% and -1.098% and 0.223% and 0.1622% and -0.3852% and 0.8573% and 1.212% and 1.051% | Figure 3E dose-response value (replicates) ([3]; 0.072656250 uM): 87.85 and 88.9 and 115.1 and 101.8 and 99.93 and 103.1 and 85.09 and 86.8 and 88.91 and 100 and 95.2 and 92.74 | Figure 3E dose-response value (replicates) ([3]; 0.145312500 uM): 94.9 and 97.22 and 98.41 and 89.88 and 90.02 and 96.03 and 88.44
